Hit rate of the full screen: of about 350,000 compounds, about 9,900 (2.8%) were called active. Inconclusive results, whose numbers are uncertain, are shown with a selection of clear calls. The call rests on the fitted dose curve; in most records, active means well fitted activation curve with a large enough effect; inconclusive means small, poorly fitted or top-dose-only effect; inactive means no such curve, though single readings can be large or run the other way. Potencies of inconclusive entries are left out as doubtful fits.
Test: A quantitative high throughput screen for small molecules that induce DNA re-replication in MCF 10a normal breast cells. Further: nearly all actives have a fitted effect of over 50% in size. On activity, positive = re-replication: % of control where 0% means no effect.
Conditions: MCF 10A DNA re-replication, Hoechst nuclear intensity, 48 h; activity, positive = re-replication: at 46.1 µM (top of the series)
Potency means the concentration at half of the fitted maximal effect; tags describe the fitted curve by direction and shape.

SMILES | Potency | activity, positive = re-replication
CCN1C(=S)N[C@@H](CCc2ccccc2)C(C(=O)OC)=C1C | inactive | 
O=C(COc1ccc(F)cc1Cl)Nc1ccc(N2CCOCC2)cc1N1CCOCC1 | inconclusive [activator, single point] | 
COc1cc(OC)cc(-c2sc3ccc(OC)cc3c2C#CCCO)c1 | inconclusive [activator, partial curve, poor fit] | 
OCC(O)C1OCOC(C(O)CO)C1O (configuration not stated) | inconclusive [activator, partial curve, poor fit] | 
Cc1c(NC(=O)/C(C#N)=C/c2ccc(-c3ccccc3Cl)o2)c(=O)n(-c2ccccc2)n1C | inactive | 
Fc1cnc(N2CCOCC2)nc1N1CCOCC1 | inconclusive [activator, single point] | 
CNS(=O)(=O)c1cccc(C(=O)OCC(=O)c2cc(C)n(-c3ccc4c(c3)OCO4)c2C)c1 | inactive | 
N#CCC1c2ccccc2CCN1C(=O)Nc1cccc(C(F)(F)F)c1 (configuration not stated) | inactive | 
CCN(C)c1ccc(/C=N\n2nnnc2N)cc1 | inconclusive [activator, partial curve] | 
Cc1ccc(NC(=O)Cc2cc(C(=O)O)c3ccccc3n2)c(C)c1 | inconclusive [activator, single point] | 
CN(C)C/C(Cl)=C(\Cl)c1ccccc1 | inconclusive [activator, single point] | 
CC(=O)C(Cl)C(=O)Nc1ccccc1 (configuration not stated) | inconclusive [activator, single point] | 
CC1CCc2c(sc3ncnc(N4CCOCC4)c23)C1 (configuration not stated) | inactive | 
CN(C)/C=C/C(=O)c1ccc(N2CCN(c3ncc(C(F)(F)F)cc3Cl)CC2)cc1 | inconclusive [activator, single point] | 
COc1ccccc1N(C)S(=O)(=O)c1ccc(C(=O)NC2CCCCC2)cc1 | inactive | 
CCOc1cccc(C2C(C(=O)c3ccc(C)o3)=C(O)C(=O)N2c2nccs2)c1 (configuration not stated) | inconclusive [activator, single point] | 
CC(CNC(=O)COc1ccccc1)OC(=O)Nc1ccc(Cl)c(Cl)c1 (configuration not stated) | inconclusive [activator, partial curve, poor fit] | 
CCCC1(c2ccccc2)NC(=O)N(CC(=O)Nc2ccccc2C(F)(F)F)C1=O (configuration not stated) | inactive | 
CC(=O)N1c2ccc(S(=O)(=O)NCC3CCC(C(=O)NCc4ccco4)CC3)cc2CC1C (configuration not stated) | inactive | 
COc1ccc(NC(=O)C(=O)NCC2CCCN2S(=O)(=O)c2cc(C)ccc2C)cc1 (configuration not stated) | inconclusive [activator, full curve, poor fit] | 
Cc1ccc(-n2ncc3c(NCc4cccnc4)ncnc32)c(C)c1 | inconclusive [activator, partial curve, poor fit] | 
O=C(c1ccc(CSc2nc3ccncc3[nH]2)cc1)N1CCN(c2cccc(Cl)c2)CC1 | inconclusive [activator, full curve, poor fit] | 
O=C(NC(=S)NNC(=O)c1cc2ccccc2cc1O)c1ccco1 | inconclusive [activator, single point] | 

SMILES | Potency | activity, positive = re-replication
Cc1cc(C)n(C2CCCCC2OC(=O)CCc2ccccc2)n1 (configuration not stated) | inactive | 
COc1ccc(CNC2C[C@H]3CCCC(=O)N4CC[C@@H](C2)[C@@H]34)cc1 (some centres not stated) | inconclusive [activator, full curve, poor fit] | 
COC(=O)c1c(C)nc2c(c(SC)nn2-c2ccccc2)c1N | inconclusive [activator, partial curve, poor fit] | 
CC1=C(C(=O)OC(C)C)C(c2ccco2)NC(=O)N1 (configuration not stated) | inactive | 
CC(C)CC(OC(=O)c1nsc(Cl)c1Cl)C(=O)NCc1cccs1 (configuration not stated) | inconclusive [activator, full curve, poor fit] | 
O=c1oc(-c2ccccc2Br)nc2ccccc12 | inconclusive [activator, single point] | 
CC(=O)Oc1c(S(=O)(=O)c2ccccc2)c(C)nn1C(C)(C)C | inconclusive [activator, single point] | 
O=S(=O)(Nc1ccc2c(c1)nc1n2CCN(Cc2ccccc2)C1)c1ccccc1 | inactive | 
CCOC(=O)C1(CCOc2ccccc2)CCN(Cc2ccc3c(c2)OCCO3)CC1 | inconclusive [activator, single point] | 
CCc1ccc(C(=O)N2CCCN(C)CC2)s1 | inconclusive [activator, partial curve, poor fit] | 
CC(=C\c1ccccc1)/C=C1/SC(=S)N(CCC(=O)O)C1=O | inconclusive [activator, full curve] | 
S=c1nc2ccccc2c2nc(-c3ccccc3Br)[nH]n12 | inconclusive [activator, partial curve, poor fit] | 
S=C(Nc1ccc(Cl)cc1Cl)Nn1cnnc1 | inconclusive [activator, single point] | 
N=C1/C(=C\c2ccc(SCc3ccccc3)o2)C(=O)N=C2SC=NN12 | inconclusive [activator, single point] | 
Cn1c(-c2ccc(Cl)cc2)ccc(C#N)c1=O |  | inactive: -178% [at 0.0737 µM]
Cn1c(SCc2cccc(Cl)c2)nc(C(F)(F)F)cc1=O | inconclusive [activator, single point] | 
CC(C)(C)NC(=O)c1cccc(NC(=O)c2ccc(NC(=O)c3ccco3)cc2)c1 | inactive | 
c1cc2c(cc1C1=Nn3c(nnc3C3CCCCC3)SC1)OCO2 | inconclusive [activator, partial curve] | 
CCOC(=O)c1c(-c2ccc(C)cc2)csc1NC(=O)CCN1CCOCC1 | inconclusive [activator, single point] | 
Cc1ccc(-c2nc(SCC(=O)c3c(N)n(C)c(=O)n(C)c3=O)n[nH]2)cc1 | inconclusive [activator, partial curve, poor fit] | 
CC1(C)CC(=O)C2=C(C1)N1C(=C(C#N)C2c2ccc(Cl)cc2)N=C(N)c2ccccc21 (configuration not stated) | inconclusive [activator, single point] | 
CCCCN(C)CCCNC(=O)c1cn(C)c2ccc(S(=O)(=O)N(C)C3CCCCC3)cc2c1=O | inconclusive [activator, single point] | 
COc1ccc(C)cc1Nc1nc(-c2ccccc2O)nc2ccccc12 | inconclusive [activator, single point] | 

SMILES | Potency | activity, positive = re-replication
CC(=O)N1CCC2(CC1)CC(=O)c1cc(OCC(=O)NCc3ccco3)ccc1O2 | inconclusive [activator, partial curve, poor fit] | 
CC(C(=O)O)c1ccc(N2Cc3ccccc3C2=O)cc1 (configuration not stated) | inconclusive [activator, partial curve, poor fit] | 
COc1ccc(NC(=O)Cn2nc(C(=O)O)c3ccccc3c2=O)cc1S(=O)(=O)N1CCCCC1 | inactive | 
O=C(COc1nsnc1N1CCOCC1)N/N=C/c1ccccc1O | inconclusive [activator, single point] | 
O=C(CN(C(=O)c1csnn1)c1ccccc1F)NCc1ccc2c(c1)OCO2 | inconclusive [activator, partial curve, poor fit] | 
Cc1ccc2nc3ccc(N4CCCC4)nn3c(=O)c2c1 | inactive | 
CCOC(=O)C1CCCN(C(=O)C2CCN(S(=O)(=O)c3cccs3)CC2)C1 (configuration not stated) | inactive | 
COc1ccc(N(CC(=O)NCc2ccc3c(c2)OCO3)S(=O)(=O)c2ccccc2[N+](=O)[O-])c(OC)c1 | inconclusive [activator, partial curve, poor fit] | 
Cc1ccsc1C1NC(=O)c2c(sc3c2CCCC3)N1 (configuration not stated) | inconclusive [activator, single point] | 
CC(C)(C)C(=O)C1=C(O)C(=O)N(Cc2ccccc2)C1c1ccccc1F (configuration not stated) | inconclusive [activator, partial curve, poor fit] | 
O=C(Nc1nc(-c2cccs2)cs1)c1cccc(S(=O)(=O)N2CCCCCC2)c1 | inconclusive [activator, partial curve] | 
CCC(c1nnnn1CCOC)N(Cc1ccc(C)cc1)Cc1cc2cc(OC)ccc2[nH]c1=O (configuration not stated) | inactive | 
COc1ccccc1C1(CCNC(C)c2cccs2)CCOC(C(C)C)C1 (configuration not stated) | inconclusive [activator, full curve, poor fit] | 
O=C(c1cnccn1)N1CCc2c([nH]c3ccccc23)C1c1cccc(Cl)c1 (configuration not stated) | inactive | 
CCOC(=O)C1CCN(C(=O)Cc2c(F)cccc2Cl)CC1 | inconclusive [activator, single point] | 
Cc1cc(C)c(C)c(S(=O)(=O)Nc2ccccc2C(=O)NCCCn2ccnc2)c1C | inconclusive [activator, single point] | 
CC(C)c1ccc(/C=C/C(=O)N2CCCCCC2)cc1 | active: 23.1 µM | 
CN(Cc1c(F)cccc1Cl)C(=O)c1ccc(COc2ccccc2)cc1 | inconclusive [activator, partial curve, poor fit] | 
CCN(CC)CCOC(=O)c1ccc(N/C=C(/C#N)c2nc(-c3cc4ccccc4oc3=O)cs2)cc1 | inconclusive [activator, single point] | 
CN(C)/C=C/C(=O)c1ccccc1OCc1cnc(Cl)s1 | active: 18.4 µM | 
CNS(=O)(=O)c1ccc(NCC2COc3ccccc3O2)c([N+](=O)[O-])c1 (configuration not stated) | inconclusive [activator, partial curve, poor fit] | 
